Measurements as given in the supplement of paper PMC3334620.
The full ranking holds about 33,000 sequences; the median of “E-score (-0.5 to 0.5)” is about -0.011, and the highest 2% start at about 0.28. The list shows a part of the results.

Biological target: T1, Gcr1 (UniProt P07261)
T1 sequence: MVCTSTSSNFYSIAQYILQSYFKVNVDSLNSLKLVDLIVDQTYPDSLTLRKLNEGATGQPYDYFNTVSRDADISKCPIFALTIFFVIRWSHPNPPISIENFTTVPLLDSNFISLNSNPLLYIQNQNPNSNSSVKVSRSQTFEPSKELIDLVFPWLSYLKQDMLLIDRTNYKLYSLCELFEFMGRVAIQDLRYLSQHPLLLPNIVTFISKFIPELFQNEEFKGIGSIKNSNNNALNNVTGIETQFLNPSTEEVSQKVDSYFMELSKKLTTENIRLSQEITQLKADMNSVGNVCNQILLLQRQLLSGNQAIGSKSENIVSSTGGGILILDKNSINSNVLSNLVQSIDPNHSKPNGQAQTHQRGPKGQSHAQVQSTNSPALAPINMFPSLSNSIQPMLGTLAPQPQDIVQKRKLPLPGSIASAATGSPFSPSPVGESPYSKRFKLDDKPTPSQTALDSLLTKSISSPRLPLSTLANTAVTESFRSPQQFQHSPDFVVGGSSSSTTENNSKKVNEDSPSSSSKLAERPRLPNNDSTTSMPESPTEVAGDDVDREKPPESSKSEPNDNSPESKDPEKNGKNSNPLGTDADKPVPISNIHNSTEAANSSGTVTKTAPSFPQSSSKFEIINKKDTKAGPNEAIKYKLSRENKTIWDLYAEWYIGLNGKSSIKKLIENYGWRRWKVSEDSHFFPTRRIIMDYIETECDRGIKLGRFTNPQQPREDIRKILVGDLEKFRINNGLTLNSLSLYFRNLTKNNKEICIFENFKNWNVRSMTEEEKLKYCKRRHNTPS
Assay: PBM E-score (8-mer binding enrichment) (E-score (-0.5 to 0.5)); higher = stronger / more preferred TF binding; most listed sequences are background and not binding sites
Details: protein concentration: 100 nM; construct: GST-full length
Outline: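 GST-tagged yeast TFs (full-length or DNA-binding domain) were made by PURExpress in vitro transcription/translation and applied at about 100-200 nM to universal all-10-mer Agilent arrays. The arrays were made double-stranded by primer extension, on fresh or once-stripped slides. Bound protein was detected with fluorescent anti-GST, and scans were normalised with masliner. Each ungapped eight-base word, pooled with its reverse complement, received an E-score (modified Wilcoxon-Mann-Whitney statistic) from the Universal PBM Analysis Suite.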

Sequence	PBM E-score
GATCCCGA	0.202
ATATGGAG	0.149
CCCCCGGC	-0.0149
AGGTGACT	-0.125
CTTTCCGC	-0.271
TGACCTAA	0.11
CATTAGCA	0.2
AGGGGGCC	-0.0347
CCACATTC	-0.113
GCAGATCC	0.138
GCGTCCGA	0.251
GGTAGGTA	-0.0582
CCCAATAG	0.0922
AGCGTTTC	-0.0245
CTAAGATC	0.123
ATTAGTAC	-0.0685
AAGTATGG	0.0635
ATGGGCGG	0.117
AATAATTA	0.0967
GATAGACA	-0.249
CCAGTCGG	-0.0778
ATCCTGTG	0.206
CGAGCACA	-0.16
GAATGTAA	0.073
CGCGCTAA	0.16

Sequence	PBM E-score
AACGGAAT	0.149
ACAGCCGA	-0.133
AGCCTTTG	-0.178
CGACGACC	-0.197
AAGGTTAA	-0.056
CGCCTTCC	0.193
ACGTAGCA	-0.079
CGTGCGTA	-0.0223
GCCAACCA	-0.165
AGATTAGG	0.0456
AGCCGGAA	0.125
AAACATTC	-0.0188
GGCGGATA	-0.141
GCCCGGCC	-0.144
ATTCCAAC	0.221
GATACTAC	0.209
ATAGCTTC	0.249
CGGTAATA	0.0548
GAATATAA	0.0912
CTCGGGTC	0.135
AGGAGGCC	0.0876
TCACGACA	-0.0725
ACGACTCG	-0.0515
AGTAGGCA	0.0213
AGTGACAA	-0.177

Sequence	PBM E-score
CCTCTCCG	0.0712
CCCAAAGC	-0.00377
AGTAACCC	-0.201
TTACGAAA	0.147
AAGCCATT	0.00968
AACTATTG	0.0588
CCCTCAAC	-0.0626
CGATATCG	-0.149
ACAGAAAC	0.12
CGTATCTA	0.0661
CAGGTAAC	0.0272
AGGAGTGC	-0.0158
GAAACCTC	0.0885
AGATGAGG	-0.0257
ACGGTCGG	-0.285
TGATCGCA	-0.196
CTAGAAAC	0.158
GGTGCCGA	0.285
AAGAAAGA	-0.0207
AATGCCCT	-0.184
CCATGTAG	0.106
ATCTGACA	-0.179
AGCTCTCG	-0.166
ACCGCCGT	-0.159
TAACCCTA	-0.112

Sequence	PBM E-score
GCGTAGCA	0.0286
GAGGTCGC	-0.055
CGAGACTC	-0.0581
GACCGGGC	-0.161
AGTACCGG	-0.0999
AGAATACC	0.139
CTAAGTAG	0.127
AACTCATT	-0.0827
CATGCATG	-0.186
AGTGGCCA	-0.182
TAGTTTAA	0.0204
TGTAGCAA	-0.0217
GCTCACCA	-0.201
AAGCTTCC	0.353
GGGCAGGA	-0.0275
ATTATGTC	0.0363
CTGTAGCC	-0.0873
GAATCGAC	-0.0311
CTAACCTA	0.178
GAGACTGA	-0.00319
CGCTTACA	0.0552
GCCCATAA	-0.144
AATTACCA	0.0239
AAAAGTGT	-0.135
GGGACGTA	-0.11

Sequence	PBM E-score
ATACGTAT	0.284
AACGATTA	0.0433
ATCGGCGA	-0.0387
ATAGATTC	0.114
ACCCTGCA	0.00618
ATGGCACG	-0.0809
CAACATGG	-0.0644
GCTCCCCA	-0.0939
CTTGGGCA	-0.0858
ATAGATCC	-0.127
AGACGAGA	-0.111
CCTCTAAC	0.191
GGCTAAAA	-0.0962
ACTGACAT	0.0661
CGAATGAG	-0.0106
ATTTTACG	0.337
AACTTTAT	0.0964
CAGTAATC	-0.024
AGACAAAG	-0.0272
ACGATCCA	-0.0924
TAATAACA	0.0838
GCCATGTA	0.0899
GATAGTCC	-0.181
AATTAGAT	0.158
GCATCGCA	-0.13

Sequence	PBM E-score
GCCGAAAC	-0.0212
AACGATAC	0.0304
CTTAGTCA	-0.199
AAGCTACG	0.0781
GTATTGGA	0.278
GATTGAGA	0.117
AAGGTTGG	-0.0801
CCACTCCG	0.0815
GTCCCCCA	0.137
CCTAAGAA	0.00789
ATATTCAA	0.105
GGACAAGA	0.113
ACCGGATC	0.0302
CCACGTAA	-0.0111
GCAATGCC	-0.0883
ATCCGTAC	-0.0926
ACATGCAA	-0.0301
AGGCGGTC	0.00267
CCTCGCGA	-0.235
CGATGAAC	-0.046
ACAAGTGG	0.201
GGACCACC	0.0412
GGCCCACA	0.085
CCTGTTTA	0.203
CACGTGGC	-0.125

Sequence	PBM E-score
CGAGTAAG	-0.00561
GACAATCA	-0.149
CTTAAACC	0.00401
CTGAAACA	0.154
ATGGTAGA	-0.104
AACACGGT	-0.0988
GAGGAGGC	0.0109
AGCTAGCT	-0.233
AGTATTTA	0.101
GCGATGAA	0.0618
AGCTAGTA	0.188
CTTCAAAC	0.101
AGGATACG	0.0713
AGAAATAC	0.13
GGAACATA	-0.122
CTAACGGA	0.032
CTTTCTTC	-0.102
CGATGTAG	-0.0576
AACAAATT	0.0331
GAATGAGA	-0.0237
AGCATGGG	-0.105
GAAAAGTA	0.0278
